Assay results reported in the supplement of paper PMC8728848.
The other results are listed elsewhere or left out.

Columns and labels:
Experiment in all cases: glycan array binding signal (z-score within array); higher = stronger binding
Conditions in all cases: glycan notation: IUPAC condensed, linker removed
[1] = molecular target: Neu5Ac(a2-6)Gal(b1-4)GlcNAc(b1-2)Man(a1-3)[Man(a1-6)]Man(b1-4)GlcNAc(b1-4)GlcNAc
Procedure, shortened: (§1)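 Arrays were curated from the Consortium for Functional Glycomics database, 3228 in total, and kept only where the protein sequence was available. Binding is expressed as a within-array Z-score. This score was averaged across arrays of the same protein sequence at different concentrations or buffers and across linkers, and negative values can be read as non-binding.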

[2] = molecular target: Neu5Ac(a2-6)Gal(b1-4)GlcNAc(b1-2)Man(a1-3)[Neu5Ac(a2-3)Gal(b1-4)GlcNAc(b1-2)Man(a1-6)]Man(b1-4)GlcNAc(b1-4)GlcNAc
Procedure, shortened: as §1

[3] = molecular target: Neu5Ac(a2-6)Gal(b1-4)GlcNAc(b1-2)Man(a1-3)[Neu5Ac(a2-6)Gal(b1-4)GlcNAc(b1-2)Man(a1-6)]Man(b1-4)GlcNAc(b1-4)GlcNAc
Procedure, shortened: as §1

[4] = molecular target: Neu5Ac(a2-6)Gal(b1-4)GlcNAc(b1-2)Man(a1-3)[Neu5Ac(a2-6)Gal(b1-4)GlcNAc(b1-2)Man(a1-6)]Man(b1-4)GlcNAc(b1-4)[Fuc(a1-6)]GlcNAc
Procedure, shortened: as §1

[5] = molecular target: Neu5Ac(a2-6)Gal(b1-4)GlcNAc(b1-2)Man(a1-6)Man(b1-4)GlcNAc(b1-4)GlcNAc
Procedure, shortened: as §1

[6] = molecular target: Neu5Ac(a2-6)Gal(b1-4)GlcNAc(b1-2)Man(a1-6)[Gal(b1-4)GlcNAc(b1-2)Man(a1-3)]Man(b1-4)GlcNAc(b1-4)GlcNAc
Procedure, shortened: as §1

[7] = molecular target: Neu5Ac(a2-6)Gal(b1-4)GlcNAc(b1-2)Man(a1-6)[GlcNAc(b1-2)Man(a1-3)]Man(b1-4)GlcNAc(b1-4)GlcNAc
Procedure, shortened: as §1

[8] = molecular target: Neu5Ac(a2-6)Gal(b1-4)GlcNAc(b1-2)Man(a1-6)[Man(a1-3)]Man(b1-4)GlcNAc(b1-4)GlcNAc
Procedure, shortened: as §1

[9] = molecular target: Neu5Ac(a2-6)Gal(b1-4)GlcNAc(b1-2)[Neu5Ac(a2-6)Gal(b1-4)GlcNAc(b1-4)]Man(a1-3)[GlcNAc(b1-4)][Neu5Ac(a2-6)Gal(b1-4)GlcNAc(b1-2)[Neu5Ac(a2-6)Gal(b1-4)GlcNAc(b1-6)]Man(a1-6)]Man(b1-4)GlcNAc(b1-4)GlcNAc
Procedure, shortened: as §1

[10] = molecular target: Neu5Ac(a2-6)Gal(b1-4)GlcNAc(b1-2)[Neu5Ac(a2-6)Gal(b1-4)GlcNAc(b1-4)]Man(a1-3)[GlcNAc(b1-4)][Neu5Ac(a2-6)Gal(b1-4)GlcNAc(b1-4)Man(a1-6)]Man(b1-4)GlcNAc(b1-4)GlcNAc
Procedure, shortened: as §1

[11] = molecular target: Neu5Ac(a2-6)Gal(b1-4)GlcNAc(b1-2)[Neu5Ac(a2-6)Gal(b1-4)GlcNAc(b1-6)]Man(a1-6)[Neu5Ac(a2-6)Gal(b1-4)GlcNAc(b1-2)Man(a1-3)][GlcNAc(b1-4)]Man(b1-4)GlcNAc(b1-4)GlcNAc
Procedure, shortened: as §1

[12] = molecular target: Neu5Ac(a2-6)Gal(b1-4)GlcNAc(b1-3)Gal(b1-3)GlcNAc
Procedure, shortened: as §1

[13] = molecular target: Neu5Ac(a2-6)Gal(b1-4)GlcNAc(b1-3)Gal(b1-4)GlcNAc
Procedure, shortened: as §1

[14] = molecular target: Neu5Ac(a2-6)Gal(b1-4)GlcNAc(b1-3)Gal(b1-4)GlcNAc(b1-2)Man(a1-3)[Neu5Ac(a2-6)Gal(b1-4)GlcNAc(b1-3)Gal(b1-4)GlcNAc(b1-2)Man(a1-6)]GalNAc
Procedure, shortened: as §1

[15] = molecular target: Neu5Ac(a2-6)Gal(b1-4)GlcNAc(b1-3)Gal(b1-4)GlcNAc(b1-3)Gal(b1-4)GlcNAc
Procedure, shortened: as §1

[16] = molecular target: Neu5Ac(a2-6)Gal(b1-4)GlcNAc(b1-3)Gal(b1-4)GlcNAc(b1-3)Gal(b1-4)GlcNAc(b1-2)Man(a1-3)[Neu5Ac(a2-6)Gal(b1-4)GlcNAc(b1-3)Gal(b1-4)GlcNAc(b1-3)Gal(b1-4)GlcNAc(b1-2)Man(a1-6)]GalNAc
Procedure, shortened: as §1

[17] = molecular target: Neu5Ac(a2-6)Gal(b1-4)GlcNAc(b1-3)Gal(b1-4)GlcNAc(b1-3)GalNAc
Procedure, shortened: as §1

[18] = molecular target: Neu5Ac(a2-6)Gal(b1-4)GlcNAc(b1-3)Gal(b1-4)GlcNAc(b1-3)[Neu5Ac(a2-6)Gal(b1-4)GlcNAc(b1-3)Gal(b1-4)GlcNAc(b1-6)]GalNAc
Procedure, shortened: as §1

[19] = molecular target: Neu5Ac(a2-6)Gal(b1-4)GlcNAc(b1-3)Gal(b1-4)GlcNAc(b1-6)[Gal(b1-3)]GalNAc
Procedure, shortened: as §1

[20] = molecular target: Neu5Ac(a2-6)Gal(b1-4)GlcNAc(b1-3)Gal(b1-4)[Fuc(a1-3)]GlcNAc(b1-3)Gal(b1-4)[Fuc(a1-3)]GlcNAc
Procedure, shortened: as §1

[21] = molecular target: Neu5Ac(a2-6)Gal(b1-4)GlcNAc(b1-3)GalNAc
Procedure, shortened: as §1

[22] = molecular target: Neu5Ac(a2-6)Gal(b1-4)GlcNAc(b1-3)[Neu5Ac(a2-6)Gal(b1-4)GlcNAc(b1-6)]GalNAc
Procedure, shortened: as §1

[23] = molecular target: Neu5Ac(a2-6)Gal(b1-4)GlcNAc(b1-6)GalNAc
Procedure, shortened: as §1

[24] = molecular target: Neu5Ac(a2-6)Gal(b1-4)GlcNAc(b1-6)[Gal(b1-3)GlcNAc(b1-3)]Gal(b1-4)Glc
Procedure, shortened: as §1

[25] = molecular target: Neu5Ac(a2-6)Gal(b1-4)GlcNAc(b1-6)[Gal(b1-3)]GalNAc
Procedure, shortened: as §1

[26] = molecular target: Neu5Ac(a2-6)Gal(b1-4)GlcNAc6S
Procedure, shortened: as §1

[27] = molecular target: Neu5Ac(a2-6)GalNAc
Procedure, shortened: as §1

[28] = molecular target: Neu5Ac(a2-6)GalNAc(b1-4)GlcNAc
Procedure, shortened: as §1

[29] = molecular target: Neu5Ac(a2-6)GalNAc(b1-4)GlcNAc6S
Procedure, shortened: as §1

[30] = molecular target: Neu5Ac(a2-6)GlcNAc(b1-4)GlcNAc
Procedure, shortened: as §1

[31] = molecular target: Neu5Ac(a2-6)GlcNAc(b1-4)GlcNAc(b1-4)GlcNAc
Procedure, shortened: as §1

B1: SSP1 (Sclerotinia sclerotiorum), XP_001584968 (protein)
chain: MGSSHHHHHHSSGLVPRGSHMSLLTTELACTSAPDQVLHLFFQDGQNILEARSPDGGNVWTTQDTIIAKDGDYNGSSMTCYYVDKDANFDNQPSIHLLYMNKDKQLTEKVKRMKGDNPIWEDAKVPDEVRKGPEQYSKLTSGSFNQGTGWNPNGSQWAYFSASKDGKMGIVEIRRTPKDPWHTETILEEKWGDELPGTALACVIGNGKIRVFLQHHDYSIILYENQNNTWHDRGTFIPKDKVQATTPLACTMTKDGSVHLFYVSKSNKIIHCTDGKKEEELINFFPGSKLGATSVENKITLFFRNLNPVNEVGTLENENGSWKHGTTVIPA
glycan array binding signal (z-score) [1]: -0.15
glycan array binding signal (z-score) [2]: -0.627
glycan array binding signal (z-score) [3]: -0.043
glycan array binding signal (z-score) [4]: -0.364
glycan array binding signal (z-score) [5]: 0.013
glycan array binding signal (z-score) [6]: -0.632
glycan array binding signal (z-score) [7]: -0.182
glycan array binding signal (z-score) [8]: -0.095
glycan array binding signal (z-score) [9]: 0.132
glycan array binding signal (z-score) [10]: -0.055
glycan array binding signal (z-score) [11]: -0.141
glycan array binding signal (z-score) [12]: -0.299
glycan array binding signal (z-score) [13]: -0.052
glycan array binding signal (z-score) [14]: 0.252
glycan array binding signal (z-score) [15]: -0.007
glycan array binding signal (z-score) [16]: 1.4
glycan array binding signal (z-score) [17]: 0.083
glycan array binding signal (z-score) [18]: -0.099
glycan array binding signal (z-score) [19]: 0.091
glycan array binding signal (z-score) [20]: 1.3
glycan array binding signal (z-score) [21]: 0.16
glycan array binding signal (z-score) [22]: -0.443
glycan array binding signal (z-score) [23]: -0.386
glycan array binding signal (z-score) [24]: -0.009
glycan array binding signal (z-score) [25]: -0.481
glycan array binding signal (z-score) [26]: 0.093
glycan array binding signal (z-score) [27]: -0.577
glycan array binding signal (z-score) [28]: -0.579
glycan array binding signal (z-score) [29]: 0.268
glycan array binding signal (z-score) [30]: 0.231
glycan array binding signal (z-score) [31]: 0.346
